# Laboratory results from patent US20210127671A1, “HYPERSENSITIVE RESPONSE ELICITOR PEPTIDES AND USE THEREOF” (priority 2015, published 2021).
# At least one peptide structure holds a part that was inferred or is arguable (an end, a ring closure or a residue). Marks after values point to notes of the source that are not given here. Some of these results come from one statement about several compounds together. Peptide text beside a SMILES is read from it.
# Columns and labels:
# [1] = Stability against chemical degradation in water or pH buffers at 50° C. (HPLC); details: for % of the original concentration after 14 days: 50 mM citrate pH 5.6, 50° C.; for % of the original material retained after 14 days: 50 mM imidazole, pH 8.0
# Procedure: Briefly, the stability and resistance to chemical degradation of peptides can be assessed as follows using peptide samples having an initial purity of at least about 80%, at least about 82%, at least about 84%, at least about 86%, at least about 88%, at least about 90%, at least about 92%, at least about 94%, at least about 96%, or at least about 98%. For water stability, the peptide is dissolved directly in de-ionized water. For chemical degradation tests, the peptide is dissolved in an aqueous solution containing 50 mM pH buffer and 0.25% Proxel GXL. Exemplary pH buffers include, without limitation: (i) Citrate pH 5.6; (ii) MES pH 6.2; (iii) MOPS pH 6.5; (iv) imidazole pH 7.0; (v) Citrate pH 7.2; (vi) EDDS, pH 7.3; (vii) EDTA pH 8.0; (viii) sodium phosphate pH 8.0; or (ix) TES pH 8.0. Peptides are first dissolved in the aqueous solution at a concentration of 0.5 mg/ml. […] An initial sample of the peptide is removed, diluted 10× with water, and analyzed by reverse-phase HPLC. Briefly, 20 μl of the sample is injected into the solvent flow of an HPLC instrument and analyzed on a C18 HPLC column (YMC ProPack C18, YMC, Japan, or C18 Stablebond, Agilent Technologies, USA) using either a triethylamine phosphate in water/acetonitrile gradient or a 0.1% TFA in water/0.1% TFA in acetonitrile gradient to separate different peptide species. Eluting peptides are monitored by UV absorbance at 218 nm and quantified based on the area under the peak. The area under the peak for the initial peptide sample is treated as the standard for relative quantification in subsequent runs. At regular intervals (e.g., 1, 3, 7, 10, 14, 17, and 21 days), each peptide sample is surveyed and analyzed by HPLC as described above.
# Stability against chemical degradation was assessed in various pH buffers by creating 0.2% AI solutions of pure, chemically synthesized peptide in deionized water, 0.25% weight to volume of Proxel® GXL (biocide), and 50 millimolar (mM) of eight buffers (separately) as follows: MES pH 5.6, MOPS pH 6.5, Citrate pH 7.2, EDDS pH 7.3, EDTA pH 8, Phosphate pH 8, Imidazole pH 8, and TES pH 8.
# [2] = tested on: tobacco mosaic virus (TMV); test: Induced resistance of tobacco to infection with tobacco mosaic virus; details: % decline in TMV lesions vs UTC; for Effectiveness Covered (%): covered leaves (systemic response); for Effectiveness Uncovered (%): uncovered leaves (local response)
SMILES,Effectiveness Covered (%) ([2]; 20 ug/ml spray),Effectiveness Uncovered (%) ([2]; 20 ug/ml spray),Effectiveness Covered (%) ([2]; 10 ug/ml spray),Effectiveness Uncovered (%) ([2]; 10 ug/ml spray),% of the original concentration after 14 days [1],further results
CC[C@H](C)[C@H](N)C(=O)N[C@H](C(=O)N1CCC[C@H]1C(=O)N[C@@H](CC(=O)O)C(=O)NCC(=O)N[C@@H](CCC(N)=O)C(=O)NCC(=O)NCC(=O)NCC(=O)N[C@@H](CCC(N)=O)C(=O)N[C@H](C(=O)NCC(=O)N[C@@H](CC(=O)O)C(=O)N[C@@H](CC(N)=O)C(=O)N1CCC[C@H]1C(=O)N[C@@H](CC(C)C)C(=O)N[C@@H](CC(C)C)C(=O)N[C@@H](CCCCN)C(=O)N[C@@H](C)C(=O)N[C@@H](CC(C)C)C(=O)N[C@@H](CC(C)C)C(=O)N[C@@H](CCCCN)C(=O)N[C@@H](CC(C)C)C(=O)N[C@H](C(=O)N[C@@H](C)C(=O)O)[C@@H](C)CC)[C@@H](C)CC)[C@@H](C)O [Peptide P19-20L] (H-ITPDGQGGGQIGDNPLLKALLKLIA-OH; N-terminus and C-terminus assumed),–,–,–,–,–,% peptide retained for 14 days ([1]; buffers at lower pH (5.5-7.0)): > 80%
CC[C@H](C)[C@H](NC(=O)[C@H](CCC(=O)O)NC(=O)CNC(=O)[C@@H](NC(=O)[C@@H](NC(=O)[C@H](Cc1c[nH]cn1)NC(=O)[C@H](CCSC)NC(=O)[C@H](CC(C)C)NC(=O)[C@H](CCSC)NC(=O)[C@H](CCC(N)=O)NC(=O)[C@@H](NC(=O)[C@H](Cc1ccccc1)NC(=O)[C@@H]1CCCN1C(=O)[C@H](CO)NC(=O)[C@@H]1CCCN1)[C@@H](C)O)[C@@H](C)CC)C(C)C)C(=O)N[C@@H](CC(C)C)C(=O)N[C@@H](CCC(N)=O)C(=O)N[C@@H](C)C(=O)N[C@@H](CCC(N)=O)C(=O)N[C@@H](CC(N)=O)C(=O)O [Peptide P6a] (H-PSPFTQMLMHIVGEILQAQN-OH; N-terminus and C-terminus assumed),58%,72* %,–,–,–,–
CC[C@H](C)[C@H](NC(=O)[C@H](CCC(=O)O)NC(=O)[C@H](CCC(=O)O)NC(=O)[C@H](CCC(=O)O)NC(=O)[C@H](CCC(=O)O)NC(=O)[C@H](CCC(=O)O)NC(=O)[C@@H](N)CO)C(=O)N[C@@H](CCC(=O)O)C(=O)N[C@@H](CCC(N)=O)C(=O)N[C@@H](CC(C)C)C(=O)N[C@@H](C)C(=O)N[C@@H](CCC(N)=O)C(=O)N[C@@H](CC(C)C)C(=O)N[C@@H](CC(C)C)C(=O)N[C@@H](C)C(=O)N[C@@H](CCC(N)=O)C(=O)N[C@@H](CC(C)C)C(=O)N[C@@H](CC(C)C)C(=O)N[C@@H](CCCCN)C(=O)N[C@@H](CO)C(=O)N[C@@H](CC(C)C)C(=O)N[C@@H](CC(C)C)C(=O)O [Peptide P18-6] (H-SEEEEEIEQLAQLLAQLLKSLL-OH; N-terminus and C-terminus assumed),–,–,86* %,69* %,–,–
CC(C)C[C@H](NC(=O)[C@H](CC(C)C)NC(=O)[C@H](CO)NC(=O)[C@H](CCCCN)NC(=O)[C@H](CC(C)C)NC(=O)[C@H](CC(C)C)NC(=O)[C@H](CCC(=O)O)NC(=O)[C@H](C)NC(=O)[C@H](CC(C)C)NC(=O)[C@H](CC(C)C)NC(=O)[C@H](CCC(=O)O)NC(=O)[C@H](C)NC(=O)[C@H](CC(C)C)NC(=O)[C@H](CCC(=O)O)NC(=O)[C@H](CCC(=O)O)NC(=O)[C@H](CCC(=O)O)NC(=O)[C@H](CCC(=O)O)NC(=O)[C@H](CCC(=O)O)NC(=O)[C@@H](N)CO)C(=O)O [Peptide P18-10] (H-SEEEEELAELLAELLKSLL-OH; N-terminus and C-terminus assumed),87* %,84* %,–,–,–,–
CC[C@H](C)[C@H](NC(=O)CNC(=O)[C@H](CCC(N)=O)NC(=O)[C@@H](N)CC(N)=O)C(=O)N[C@@H](CO)C(=O)N[C@@H](CCC(=O)O)C(=O)N[C@@H](CCCCN)C(=O)N[C@@H](CCC(N)=O)C(=O)N[C@@H](CC(C)C)C(=O)N[C@@H](CC(=O)O)C(=O)N[C@@H](CCC(N)=O)C(=O)N[C@@H](CC(C)C)C(=O)N[C@@H](CC(C)C)C(=O)N[C@H](C(=O)N[C@@H](CCC(N)=O)C(=O)N[C@@H](CC(C)C)C(=O)N[C@H](C(=O)N[C@H](C(=O)N[C@@H](C)C(=O)N[C@@H](CC(C)C)C(=O)N[C@@H](CC(C)C)C(=O)N[C@@H](CCC(N)=O)C(=O)N[C@@H](CCC(N)=O)C(=O)O)[C@@H](C)O)[C@@H](C)CC)[C@@H](C)O [Peptide P1-18T] (H-NQGISEKQLDQLLTQLITALLQQ-OH; N-terminus and C-terminus assumed),–,–,–,–,80%,% of the original material retained after 14 days [1]: 60-75%
CC[C@H](C)[C@H](NC(=O)[C@H](CC(C)C)NC(=O)[C@H](CCCCN)NC(=O)[C@H](CC(C)C)NC(=O)[C@H](CC(C)C)NC(=O)[C@H](C)NC(=O)[C@H](CCCCN)NC(=O)[C@H](CC(C)C)NC(=O)[C@H](CC(C)C)NC(=O)[C@H](CCC(=O)O)NC(=O)[C@H](CCC(=O)O)NC(=O)[C@H](CCC(=O)O)NC(=O)[C@H](CCC(=O)O)NC(=O)[C@H](CCC(=O)O)NC(=O)[C@@H](N)CO)C(=O)N[C@@H](C)C(=O)N[C@@H](CCCNC(=N)N)C(=O)N[C@@H](CC(C)C)C(=O)N[C@@H](CC(C)C)C(=O)O [Peptide P19-7] (H-SEEEEELLKALLKLIARLL-OH; N-terminus and C-terminus assumed),–,–,82* %,88* %,–,–
CC[C@H](C)[C@H](NC(=O)CNC(=O)[C@H](CCC(N)=O)NC(=O)[C@@H](N)CC(N)=O)C(=O)N[C@@H](CO)C(=O)N[C@@H](CCC(=O)O)C(=O)N[C@@H](CCCCN)C(=O)N[C@@H](CCC(N)=O)C(=O)N[C@@H](CC(C)C)C(=O)N[C@@H](CC(=O)O)C(=O)N[C@@H](CCC(N)=O)C(=O)N[C@@H](CC(C)C)C(=O)N[C@@H](CC(C)C)C(=O)N[C@H](C(=O)N[C@@H](CCC(N)=O)C(=O)N[C@@H](CC(C)C)C(=O)N[C@H](C(=O)N[C@@H](CCCCN)C(=O)N[C@@H](C)C(=O)N[C@@H](CC(C)C)C(=O)N[C@@H](CC(C)C)C(=O)N[C@@H](CCC(N)=O)C(=O)N[C@@H](CCC(N)=O)C(=O)O)[C@@H](C)CC)[C@@H](C)O [Peptide P1-18K] (H-NQGISEKQLDQLLTQLIKALLQQ-OH; N-terminus and C-terminus assumed),–,–,–,–,80%,% of the original material retained after 14 days [1]: 60-75%
CC[C@H](C)[C@H](NC(=O)CNC(=O)[C@H](CCC(N)=O)NC(=O)[C@@H](N)CC(N)=O)C(=O)N[C@@H](CO)C(=O)N[C@@H](CCC(=O)O)C(=O)N[C@@H](CCCCN)C(=O)N[C@@H](CCC(N)=O)C(=O)N[C@@H](CC(C)C)C(=O)N[C@@H](CC(=O)O)C(=O)N[C@@H](CCC(N)=O)C(=O)N[C@@H](CC(C)C)C(=O)N[C@@H](CC(C)C)C(=O)N[C@H](C(=O)N[C@@H](CCC(N)=O)C(=O)N[C@@H](CC(C)C)C(=O)N[C@H](C(=O)N[C@@H](C)C(=O)N[C@@H](C)C(=O)N[C@@H](CC(C)C)C(=O)N[C@@H](CC(C)C)C(=O)N[C@@H](CCC(N)=O)C(=O)N[C@@H](CCC(N)=O)C(=O)O)[C@@H](C)CC)[C@@H](C)O [Peptide P1-18A] (H-NQGISEKQLDQLLTQLIAALLQQ-OH; N-terminus and C-terminus assumed),–,–,–,–,~60%,–
CC[C@H](C)[C@H](NC(=O)[C@H](CCC(=O)O)NC(=O)CNC(=O)[C@@H](NC(=O)[C@@H](NC(=O)[C@H](Cc1c[nH]cn1)NC(=O)[C@H](CCSC)NC(=O)[C@H](CC(C)C)NC(=O)[C@H](CCC(N)=O)NC(=O)[C@@H](NC(=O)[C@H](Cc1ccccc1)NC(=O)[C@@H]1CCCN1C(=O)[C@H](CO)NC(=O)[C@@H]1CCCN1)[C@@H](C)O)[C@@H](C)CC)C(C)C)C(=O)N[C@@H](CC(C)C)C(=O)N[C@@H](CCC(N)=O)C(=O)N[C@@H](C)C(=O)N[C@@H](CCC(N)=O)C(=O)N[C@@H](CC(N)=O)C(=O)O [Peptide P6] (H-PSPFTQLMHIVGEILQAQN-OH; N-terminus and C-terminus assumed),93* %,99* %,–,–,–,–
CC[C@H](C)[C@H](NC(=O)[C@H](CC(N)=O)NC(=O)[C@H](CO)NC(=O)[C@H](CCC(N)=O)NC(=O)[C@H](CO)NC(=O)[C@H](CC(=O)O)NC(=O)[C@H](CC(N)=O)NC(=O)[C@@H]1CCCN1C(=O)[C@@H](N)CCCCN)C(=O)N[C@@H](C)C(=O)N[C@@H](CCCCN)C(=O)N[C@@H](CC(C)C)C(=O)N[C@H](C(=O)N[C@@H](CO)C(=O)N[C@@H](C)C(=O)N[C@@H](CC(C)C)C(=O)N[C@H](C(=O)N[C@@H](CCSC)C(=O)N[C@@H](CO)C(=O)N[C@@H](CC(C)C)C(=O)N[C@@H](CC(C)C)C(=O)N[C@@H](CCC(N)=O)C(=O)N[C@@H](CCSC)C(=O)O)[C@@H](C)CC)[C@@H](C)CC [Peptide P15] (H-KPNDSQSNIAKLISALIMSLLQM-OH; N-terminus and C-terminus assumed),–,–,72* %,95* %,–,–
